Results reported in PubChem BioAssay AID1345083 (National Center for Advancing Translational Sciences (NCATS), 2018).
The whole screen tested about 94,000 compounds, of which about 6,200 (6.6%) were called active. The inconclusive results got no clear call from the source; some entries with a clear call stand among them for comparison. The call rests on the fitted dose curve; in most records, active means well fitted inhibition curve with a large enough effect; inconclusive means small, poorly fitted or top-dose-only effect; inactive means flat fitted curve, though single readings scatter. Potencies of inconclusive entries are doubtful fits and often do not repeat.

assay: Cytotoxic Profiling in HEK 293 Cell Line of Diverse Libraries Using Quantitative High-Throughput Screening; settings: HEK 293 viability, ATP luminescence (CellTiter-Glo), 48-72 h; activity change, negative = cytotoxicity: at 115 µM (top of the series) unless noted; series mostly up to 115 µM; further: nearly all actives have a fitted effect of over 60% in size
Summary of the method: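 Luminescence from cellular ATP, measured with CellTiter-Glo, indicates HEK 293 viability. Cells plated at 250 cells/well are treated with compound for 48 or 72 hr at 37 degree Celsius before reagent addition.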
On the % scale 0 is the no-effect control and ±100 the full control effect; potency means the concentration at half of the fitted maximal effect; tags describe the fitted curve by direction and shape.

SMILES	activity change, negative = cytotoxicity	Potency	outcome
O=C(c1ccccc1F)N1CCn2c(nnc2-c2ccc(Cl)cc2)C1	inactive: 0.986%	–	–
COc1c(C)cccc1C(=O)N1CCOC(c2ccc(Cl)c(Cl)c2)C1 (configuration not stated)	–	inconclusive: 17.8 µM [inhibitor, full curve, poor fit]	–
COc1cc(NC(=O)c2ccc(-c3ncn[nH]3)cc2)ccc1NC(=O)C(C)(C)C	–	active: 25.1 µM	–
O=Cc1cccc(N2CCN(C(=O)c3ccc4c(c3)OCO4)CC2=O)c1	inactive: 1.37%	–	–
O=C1CCN(C[C@@H](O)COCc2ccccc2)c2ccc(F)cc2CN1CC1CC1	–	inconclusive: 50.1 µM [inhibitor, partial curve, poor fit]	–
COc1ccc(C(=O)N2CCCC(c3noc(COc4ccccc4F)n3)C2)cc1OC (configuration not stated)	–	inconclusive: 50.1 µM [inhibitor, partial curve, poor fit]	–
CS(=O)(=O)c1ccc(CN2CCC[C@H]2c2nc(-c3ccnc(N4CCOCC4)c3)no2)cc1	–	–	inactive
CN(Cc1ccc(-c2ccccc2)cc1)S(C)(=O)=O	–	inconclusive: 100 µM [inhibitor, partial curve, poor fit]	–
COCCn1ncc(N2CCC(NC(=O)C(C)C)CC2)cc1=O	–	–	inactive
CC(=O)c1ccc(NC(=O)N[C@H]2CO[C@H]3[C@@H]2OC[C@@H]3Nc2nccc(-c3cccs3)n2)cc1	inactive: 4.05%	–	–
COc1ccc2c3c1C(C(N)=O)N(Cc1ccccc1)CC3=CC(C)(C)CO2 (configuration not stated)	–	inconclusive: 56.2 µM [inhibitor, partial curve, poor fit]	–
COc1ccccc1CCC(=O)N1CCCN(c2cc(-c3ccc(Cl)cc3)[nH]n2)CC1	–	inconclusive: 50.1 µM [inhibitor, partial curve, poor fit]	–
COc1ccccc1CNC(=O)C1Cn2cccc2C(=O)N1Cc1cccnc1 (configuration not stated)	–	–	inactive
CSCCNC(=O)[C@@H]1CCCN1c1nccc(Nc2ccccc2Cl)n1	–	inconclusive: 56.2 µM [inhibitor, partial curve, poor fit]	–
Cc1nnc(-c2cc(-c3cccnc3)ccn2)n1CCN1CCOCC1	inactive: 4.98% [at 172 µM]	–	–
O=C(OCc1ccccc1)N1CCOCC12CCN(Cc1ncccn1)CC2	inactive: -11.6% [at 172 µM]	–	–
Cc1cccc(CNC(=O)C2CCCCC(=O)N2)c1 (configuration not stated)	inactive: 5.02%	–	–
CCCNc1cc(N2CCC(CCC(=O)N(C)CCc3ccncc3)CC2)ncn1	–	inconclusive: 50.1 µM [inhibitor, partial curve, poor fit]	–
COC[C@H]1C[C@H]2C[C@@H](Oc3ccccn3)[C@H](N(C)CCc3ccc(OC)c(OC)c3)[C@]2(O)CO1	inactive: 0.243% [at 57.5 µM]	–	–
COc1cccc(-c2nn(-c3ccccc3)c(OC(C)=O)c2-c2ccc(NC(=O)c3ccco3)cc2)c1	inactive: -29.4%	–	–
CN1c2cc(C(=O)NCc3ccccc3C(F)(F)F)ccc2C(=O)N2CCCCC21 (configuration not stated)	–	inconclusive: 44.7 µM [inhibitor, partial curve, poor fit]	–

SMILES	activity change, negative = cytotoxicity	Potency	outcome
COc1ccc2nc([C@H]3CCN(C(=O)c4ccccc4)C3)[nH]c2c1	inactive: -15.4% [at 172 µM]	–	–
CN(Cc1cccnc1)Cc1nc(C2(O)CCN(Cc3ccc(F)cc3)CC2)cs1	–	inconclusive: 63.1 µM [inhibitor, full curve, poor fit]	–
CC1=C[C@@H](CO)[C@H](C(C)C)C[C@H]1Cc1nnc(-c2cccnc2)o1	–	inconclusive: 89.1 µM [inhibitor, partial curve, poor fit]	–
CCCOc1ccccc1C(=O)N1CCc2onc(-c3ccccc3)c2C1	–	inconclusive: 50.1 µM [inhibitor, partial curve, poor fit]	–
CCCCn1c(=O)c(C(=O)NCC(F)F)nc2cccnc21	inactive: -6.98% [at 172 µM]	–	–
O=C(Cc1ccccn1)NCCNC(=O)c1ccc(-c2cccc(C(F)(F)F)c2)cc1	–	inconclusive: 56.2 µM [inhibitor, partial curve, poor fit]	–
CC(c1ccon1)N(C)C(=O)c1ccc(OC2CCN(S(=O)(=O)N(C)C)CC2)cc1 (configuration not stated)	–	inconclusive: 31.6 µM [inhibitor, partial curve, poor fit]	–
O=C(c1ccccc1F)N1CCn2c(nn(-c3ccc(F)cc3)c2=O)C1	–	inconclusive: 50.1 µM [inhibitor, partial curve, poor fit]	–
Cn1nc(C(=O)NC2CCCc3c2[nH]c2ccccc32)c2ccccc2c1=O (configuration not stated)	–	active: 35.5 µM	–
Cc1cccc(OCCc2noc(C3CN(C(=O)C(C)C)C3)n2)c1	–	inconclusive: 70.8 µM [inhibitor, partial curve, poor fit]	–
O=C(C1CCCN1C(=O)c1cccc(-c2ccccn2)c1)N1CCC(Cc2ccccc2)CC1 (configuration not stated)	–	inconclusive: 44.7 µM [inhibitor, partial curve, poor fit]	–
COc1cccc(-c2cccc(C(=O)N3CCN(C(=O)c4ccccc4)CC3)c2)c1	–	inconclusive: 50.1 µM [inhibitor, partial curve, poor fit]	–
CSc1cccc(NC(=O)CN2C(=O)NC3(CCS(=O)(=O)CC3)C2=O)c1	inactive: -3.05%	–	–
COc1ccc(C(=O)N2CCC(=O)N(CCC#N)C[C@H]3COc4ccccc4[C@H]32)cc1	inactive: -11.6%	–	–
Cc1ccc(C)c(C(=O)N2CCC3(CC2)NC(=O)N(c2ccc(F)cc2)N3)c1	–	inconclusive: 28.2 µM [inhibitor, full curve, poor fit]	–
COc1ccc(F)cc1-c1ccc(CN2CCC(NC(=O)c3ccccc3F)C2)cc1 (configuration not stated)	–	inconclusive: 50.1 µM [inhibitor, partial curve, poor fit]	–
O=C(CN1C(=O)NC2(CCOCC2)C1=O)NC1CCCC1	inactive: 13.1%	–	–
COc1ccc(C(=O)N2CCC3(CCC3OC)CC2)cn1 (configuration not stated)	–	inconclusive: 89.1 µM [inhibitor, single point]	–
COCCCn1c(=O)c(C(=O)N2CCCC2)nc2cccnc21	inactive: -1.29% [at 172 µM]	–	–
Cc1ccccc1CNC(=O)[C@H]1CN(Cc2ccccc2)C[C@H]1C(=O)O	–	inconclusive: 31.6 µM [inhibitor, partial curve, poor fit]	–
COc1ccc(-c2nc(C3CC(=O)N(c4ccc(OC)c(OC)c4)C3)no2)c(OC)c1 (configuration not stated)	–	inconclusive: 56.2 µM [inhibitor, partial curve, poor fit]	–
